The labels stand for the following.
B1: LINE1-full (parent)
chain: UACGUAGGUGGUUUUCCCCUGAUAGUGCUAAGGGGGCCUGGAAGUUUGGACUGGGCAGAGCUCAACACAGCGUGGCAAAGUGGCUGUGGCUAGACUGCCUCUCUGGAUUCCUCGUCACUCAGCAGGGCAUCUCUGAGAGAAAUGCC

The source gives no read counts; variants with many changes may rest on few reads.

The variants in the data set derive from B1. The data set can be described thus: self-cleavage, relative activity (ratio to wild type); higher = more cleavage; in vitro, sequencing; the parent is a self-cleaving ribozyme.
With G33A A50G U52A A94G, the self-cleavage was 0. The figure for G32A A42G U62A is 0.12; for G34A U96C A140G it is 0.06; for G36A A57G A65G A117G it is 0.06.

As to U39A G44U U47C U73C G114C A141G, the self-cleavage was 2.07. The figure for U39A A50G U130C is 0.68; for G32A U39C U96C U115C it is 0. The figure for U39A C66U A78G is 0.06. For the variant C37U U45C U102A, the self-cleavage amounted to 1.44. Regarding G36A U108C U132A U143A, the self-cleavage came out at 1.64. The figure for G34U A59G U62A U96C is 0; for U39A A69G A129G it is 0.19; for C37A A57G A107C A140G it is 2.11. Take U39A U47C G49A G97A A136U: the self-cleavage stood at 0.09. For G35A A124U A141U, the self-cleavage worked out at 1.32. As for G34A U45G U130C, the figure is 0.92. As to G36A A43U U115A, the self-cleavage came to 1. With G34A U81G U87C A124G, the self-cleavage came out at 0.21. In the case of G34A U52G U73A A142G, the self-cleavage came out at 1.62. The figure for C38U G86C A92G is 0.08; for U39A A50G A78G U85C it is 0.28. As for G35U G80C A94U A142G, the figure is 0.21; as for G36C U45C U108C A140G, 2.15; as for G32A A43G A69U, 0. Take G32A U39A G125A: the self-cleavage turned out to be 1.12. For the variant C37U A136U U143C, the self-cleavage amounted to 0.29. As for G32A A57U U62A, the figure is 0.28. As for C38G G88A A121G, the figure is 0.3; as for G33C U39A U119A C146A, 0.51. The figure for C38U A50G U115A A121G A124U is 0.73; for C37U U112C U115C A138G it is 2.07; for U39A U62C U81A U130C it is 0.16. As for C38U A107G U115A A142G, the self-cleavage turned out to be 1.07. G35C A107G U143C: the self-cleavage amounted to 1.18.

Take G34A A77G U132C A140G: the self-cleavage was 2.43. As for G36U C76U A79G G93A A121G, the figure is 0.04. As for U39A A67U U108C, the figure is 0.16; as for G35A A42G G60U A79G A141U, 0.06; as for G32A U47C A69U U81A U119C, 0.07.

As to G32A U115A A129G, the self-cleavage worked out at 0.8. The figure for G35A A94G U112C is 0.18; for G34U G80A U130C it is 1.88; for C38A A67U U73C A138C it is 0.15. The figure for G35A U52G U81C is 1.46. The figure for G35U U46C A67U C99U C123U is 0.11. On to C38A U73C A136G, for which the self-cleavage came to 0.41. For the variant C38U U96A A140G, the self-cleavage was 0.07. As for G36A U47C C98G U104A, the figure is 0.07; as for G36C U46A U52C U91C A136G, 1.31; as for C37A U134A A140G, 0.46. For the variant G33U A42G A117G, the self-cleavage is 0.69. The figure for C38U U115C G126A A141G is 1.78; for G36U A79G U132A it is 0.71. The figure for A31U U47C G48U is 1.25; for G34A A121G A129G it is 1.67. Regarding U39A A79G A142U C145U, the self-cleavage was found to be 1.53. The figure for G33A A64G U112A G114A is 0.19; for G32A U91A A140G it is 0.67. The figure for G36A U96C A141G is 0.09; for G36A U39C U91C it is 0.9. As for G36A U62C U91A, the figure is 0.02; as for C38A C76U U100C U134C, 2.5. Turning to C38U U108C A117U A141G, the self-cleavage is 1.54. G36C G41U U47C U119C: the self-cleavage was determined as 0.84.

For the variant G34A U39C U119C, the self-cleavage was determined as 0.81. Regarding G34A U46C U102C U134C, the self-cleavage is 2.27. The figure for C37U U47C A138G is 1.82; for C37U A69G A121G it is 0.75; for U39A G40A A140G it is 1.22.

For G36A A64U A78C A92G, the self-cleavage amounted to 0.19. The figure for G36A C37U U39A A59G A136G is 0.07; for C37U A42G U85A G89A it is 0.05.

For G32U U45A A59G U134C, the self-cleavage was found to be 0.03. The figure for G34A A78G U81C is 0.86; for G36A U81G C90U it is 0.06. Regarding U39A U62C A64U G114A U132A, the self-cleavage is 0.03. Turning to G32A A77U U132C, the self-cleavage was determined as 1.06.

For G32A U104G A141G, the self-cleavage is 1.15. Consider G34A U119C U132C A138G, for which the self-cleavage came out at 0.81. The figure for G35A U62A C110U A138U is 0.01; for G36A A94U U100C U143C it is 0.34; for G35A A42U A57U A79G it is 0.02.

As for G33C U73C A129U, the self-cleavage turned out to be 0.33.

As to U39A U62C A65C A140G, the self-cleavage was 0.68. With G34U A69G U85C A138G, the self-cleavage worked out at 1.04. As for C37U U100C U108C A117G A138U, the figure is 0.54. The figure for C38U C71U U85C A94G is 0.02; for G33U U73C A78G G86A U132C it is 0.07. As for G33A A64U U85C A140G, the figure is 0.05. On to G35A U39A A67G, for which the self-cleavage amounted to 0.41. The figure for U39A A77U U91C is 0.13; for C38A G41U A77U A121U it is 1.28. As for G36A U46C C146U, the figure is 1.24.

Take G33U U91C U130C: the self-cleavage stood at 1.17.

Consider G32A U47C U62A U85C U87A A94G U130C, for which the self-cleavage was 0. On to C37G U46C A64U U132A, for which the self-cleavage was determined as 0.52. The figure for C38U A94G C133U is 0.46; for U39A A69U A138G it is 0. The figure for U39A A42G U73C U104A is 2.04. As for G35A U104C U115A, the figure is 1.27. For G33C A64G A124G, the self-cleavage turned out to be 0.14. In the case of U39A U52A U119C, the self-cleavage stood at 1.35.

In the case of U39A A78U A129U A141G, the self-cleavage was 2.15. On to G32U G49U U132C, for which the self-cleavage is 0.82.

Consider A31U U39C A117U, for which the self-cleavage was 0.93. The figure for U39A U73A U119C G127A is 1.26; for G32A A65G G70A U134A it is 0.

U39A U85C A121G A142U: the self-cleavage stood at 0.09. Consider G34U U45C A124G, for which the self-cleavage turned out to be 1.1. In the case of G35U U102A G106U U119C, the self-cleavage is 2.36. As for C38U U96C U104C, the figure is 0.5. For the variant G35C U108C U130C, the self-cleavage is 1.04. For the variant C38U A65G U73C A142G, the self-cleavage was 0.04. The figure for U39A G54A A64G is 0.27; for U39A A50G A136G it is 1.19. For the variant G35U A57U G97A A140G, the self-cleavage amounted to 0.08. As for G32U U73C A107U A140U, the figure is 2.07; as for G32A A64G A138G, 0.36; as for C38A A69G A124C, 0.59. The figure for G34C A67U U119C U132C is 0.18.

As for G33U A64G U108C A141C, the self-cleavage was 0. As for G32C U52C A64G, the figure is 0.5; as for G35A U85A U87A, 0.06; as for U39A C98U C99A U134A, 0.1. As for G33A A79G A107G C113U A129G, the figure is 0. As for G33A U87A A94G, the figure is 0.09; as for U39A A42G A64G U132A A140G, 0.4. Turning to C37A U85A G126A, the self-cleavage came to 0.06. The figure for G36A A59G U73C U132C is 0; for G32A A42U A57C it is 0.03. The figure for G33A A57G C113A is 0.51; for G36A A43G U45C A142G it is 0.75. U39A U73C U81C C101A: the self-cleavage is 1.8. As for G33A G127A A136G, the self-cleavage stood at 1.49. The figure for G34U U62A U115C is 0.02. With G35A A92U A107G, the self-cleavage was 0.15. As for U39A A92U A117U G126A, the figure is 0.81; as for U39A C111U A129G, 1.58.

Consider U39A U96A A141G, for which the self-cleavage turned out to be 0.03. The figure for G34A A65U A78G U119A A121G U132A A136U U143A is 0; for U39A A94U U102C A136G it is 0.

G33A A43G U46C A64U A129G: the self-cleavage turned out to be 0.26.

For the variant C37G U62C U143C, the self-cleavage came out at 0.07. On to G32C G82A U104A U108C, for which the self-cleavage turned out to be 1.63. On to G36A U115C A121G C145A, for which the self-cleavage amounted to 1.6. For the variant C38U U52C U62C U100C, the self-cleavage was 0.14. As for G35A A77U A78G C111U U132C, the figure is 0.29; as for G34A A65C A124U, 0.03; as for G33A A42U A140G, 0.78. Turning to G32A A79G U132A, the self-cleavage turned out to be 1.44. The figure for U39A U47A A78U U112C C145G is 1.63; for G35A A65G U115C A124C it is 0; for C37G G82A A94U it is 0.22. G34C U52A A142G: the self-cleavage turned out to be 1.29.

In the case of G32A A78G A79U, the self-cleavage came to 0.67. On to G32A A92G A129U A138G, for which the self-cleavage stood at 0.05. Take U39A A65G A124G: the self-cleavage stood at 0.11. The figure for G32U C71U U85A is 0.05. As for G35U U39A A64G A65G, the figure is 0.17; as for C37U A69C U115A U143G, 0.08; as for U39A A43G G58A C120A A136U, 0.03. Take G35A U100A A124G: the self-cleavage came out at 0.56. The figure for U39A A50G U119C A138G is 0.61. For the variant G34A U112C U119A, the self-cleavage was 1.04. The figure for G32A U104A A142G is 0.65. As for U39A A136G A141U, the figure is 1.79. The figure for U39A A140G A141G U143G is 1.08.
